# Assay results taken from PubChem BioAssay (NCATS).
# This list was built around the results that the source calls inconclusive (neither active nor inactive); the mix of calls is not that of the screen. For part of these data: A potency beside an inconclusive call is a rough fit, not a confirmed value. Activity calls are given as the source filed them. Unless noted, calls follow the shape of the dose curve; as a rule, active = well fitted curve in the direction sought with a large enough effect; inconclusive = small, poorly fitted or top-dose-only effect, or another doubt; inactive = no such curve, though single readings can be large; an effect the other way counts as inactive or inconclusive.
# Columns and labels:
# [1] = P-glycoprotein substrates identified in KB-8-5-11 adenocarcinoma cell line, qHTS therapeutic library screen (AID 1346987); conditions: activity change, negative = cytotoxicity: at 44.5 µM (top of the series); also: nearly all actives have a fitted effect of over 65% in size
# How it was run: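 Human cervical adenocarcinoma KB-8-5-11 cells, selected in colchicine to over-express P-gp and assayed without it, were exposed for 72 h to titrated compounds. An ATP-based luminescent viability signal gave AC50.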
# [2] = qHTS to identify inhibitors of the type 1 interferon - major histocompatibility complex class I in skeletal muscle: primary screen against the NCATS Mechanism Interrogation Plate v5.0 (MIPE) Libary (AID 1347411); conditions: iHSKM cells + IFN-b, HiBiT-tagged MHC-I luminescence, 24 h; activity change, negative = inhibition: at 45.8 µM (top of the series) unless noted; also: potency is read from the fitted curve at half-maximal effect; nearly all actives have a fitted effect of over 65% in size
# How it was run: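 IFN-beta-driven (4 ng/ml) HLA-B-HiBit expression in CRISPR-tagged C25cl48 myoblasts; compounds 11-pt, 1:3, max 46 uM, 24 hr exposure; lytic NanoLuc complementation luminescence.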
# [3] = biological target: Cytochrome P450 2D6 (Homo sapiens) (UniProt P10635); test: Cytochrome P450 family 2 subfamily D member 6 (CYP2D6) small molecule antagonists: luciferase biochemical (cell-free) qHTS assay (AID 1645840; active = well fitted curve in the direction sought with a large enough effect in the repeat runs; inconclusive = weak or mixed curves; inactive = no such curve, though single readings can be large; an effect the other way counts as inactive or inconclusive; also: potency is read from the fitted curve at half-maximal effect; nearly all actives have a fitted effect of over 55% in size)
# Chain of UniProt P10635 (P10635 whole entry, looked up): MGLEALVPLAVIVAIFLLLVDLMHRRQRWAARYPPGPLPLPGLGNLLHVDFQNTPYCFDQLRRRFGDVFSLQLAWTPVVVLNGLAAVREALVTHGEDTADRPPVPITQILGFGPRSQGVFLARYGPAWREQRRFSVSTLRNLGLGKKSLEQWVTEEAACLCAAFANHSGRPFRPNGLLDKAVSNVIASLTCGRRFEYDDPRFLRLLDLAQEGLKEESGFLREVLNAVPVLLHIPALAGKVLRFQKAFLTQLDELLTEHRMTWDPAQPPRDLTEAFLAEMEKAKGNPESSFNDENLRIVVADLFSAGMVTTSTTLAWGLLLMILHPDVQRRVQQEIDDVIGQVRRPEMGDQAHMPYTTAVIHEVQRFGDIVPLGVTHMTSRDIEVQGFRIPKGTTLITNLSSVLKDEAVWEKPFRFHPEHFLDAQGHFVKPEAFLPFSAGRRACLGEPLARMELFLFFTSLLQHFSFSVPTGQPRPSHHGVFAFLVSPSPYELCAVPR
# How it was run: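 P450-Glo CYP2D6 system: proluciferin substrate converted by enzyme to luciferin, read by luminescence proportional to activity. Enzyme-substrate mix with compound 10 min at room temperature, then NADPH regeneration 1 h before detection reagent.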
# [4] = Primary qHTS for inhibitors of nuclear receptor binding SET domain protein 2 (NSD2) in an RCH-ACV wild type WT cells (2C) (AID 1645877); conditions: activity change, negative = cell killing: at 44.9 µM (top of the series) unless noted; also: nearly all actives have a fitted effect of over 70% in size; also: potency is read from the fitted curve at half-maximal effect
# [5] = Primary redox qHTS assay for identification of artifact compounds. (AID 1845223); also: potency is read from the fitted curve at half-maximal effect
# How it was run: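 Redox-cycling detection via DTT (250 uM final) oxidation coupled to Amplex Red (25 uM)/HRP (250 mU/mL) in HBSS. 15 min preincubation plus 30 min after DTT, room temperature. Ex/Em 525/598 nm; 4-parameter Hill fit against DMSO and 10 uM DA3003.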
# SKOV3 = test: Primary qHTS to identify gynecologic anti-cancer compounds using libraries of approved drugs and bioactive compounds (AID 1345084); conditions: Gynecologic cancer cell panel viability, ATPlite luminescence, 48 h; series mostly up to 57.5 µM; also: nearly all actives have a fitted effect of over 55% in size; also: potency is read from the fitted curve at half-maximal effect
# How it was run: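 Cells, 1,000 per well, were allowed to settle for 16 h at 37 C before compound addition. Five concentrations were tested for 48 h, and viability was read by ATPlite luminescence after 15 min at room temperature.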
# [6] = system: Zika virus NS2B-NS3 protease (unlinked complex); test: Primary screen GU Rhodamine qHTS for Zika virus inhibitors: Unlinked NS2B-NS3 protease assay (AID 1347159); conditions: Recombinant ZIKV NS2B-NS3 protease, Rhodamine110 substrate fluorescence; activity change, negative = inhibition: at 107 µM (top of the series); also: potency is read from the fitted curve at half-maximal effect; nearly all actives have a fitted effect of over 60% in size
# How it was run: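 Buffer 10 mM Tris-HCl pH 8.0, 0.01% Tween 20. Unlinked protease 25 nM; compound preincubation 15 min, RT, protected from light. Substrate Rhod110, 1.5 microM; ~15% conversion in 15 min.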
# [7] = system: Zika virus NS2B-NS3 protease (linked construct); test: Primary screen NINDS Rhodamine qHTS for Zika virus inhibitors (AID 1347160); also: potency is read from the fitted curve at half-maximal effect; nearly all actives have a fitted effect of over 55% in size
# How it was run: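 Aprotinin served as in-plate control. Conditions: 25 nM linked NS2B-NS3, pH 8.0 Tris buffer, titrated compounds, 15 min preincubation and 15 min reaction with 1.5 microM Rhod110 substrate at room temperature.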
# [8] = Primary fluorescence-based thiol-reactive (MSTI) qHTS assay for identification of artifact compounds. (AID 1845221);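 also: potency is read from the fitted curve at half-maximal effect; thiol-reactive compounds lower the probe fluorescence signal; nearly all actives have a fitted effect of over 65% in size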
# How it was run: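 qHTS titration of compound; 4 uM MSTI, PBS pH 7.4, 2% DMSO; 1 h RT, dark; fluorescence 525/598 nm; normalized to Acetyl-MSTI and MSTI; 4-parameter Hill fit.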
# [9] = qHTS of pediatric cancer cell lines to identify multiple opportunities for drug repurposing: Primary screen for Rh18 cells (AID 1347102); also: nearly all actives have a fitted effect of over 65% in size
# How it was run: (§1)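 Cells (500-1,000/well) rested 5 h, then received compounds for 48 h; metabolically active cells were measured by CellTiter-Glo luminescence. Final concentrations spanned up to 46 µM (MIPE, 11-point) or 0.59 nM-46 µM (NPC, 8-point) in primary screens, 11-point in follow-ups.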
# [10] = qHTS of pediatric cancer cell lines to identify multiple opportunities for drug repurposing: Primary screen for control Hh wild type fibroblast cells (AID 1347106);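 also: a drop in luminescence marks cytotoxicity and a rise apparent proliferation; nearly all actives have a fitted effect of over 55% in size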
# How it was run: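 Cells (500-1,000/well) in growth media were settled 5 h at 37 degrees C, then given compounds for 48 h. Viability was read as CellTiter-Glo luminescence. Primary runs used MIPE at 11 points (0.78 nM-46 µM) and NPC at 8 points (0.59 nM-46 µM); follow-ups used 11 points.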
# [11] = A High-Content qHTS Against Drug Library for the Identification of Small Molecules that Inhibit DYT1 Early Onset Primary Dystonia-Associated Cell Pathology (AID 1645839; calls by dose curve)
# How it was run: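 High-content imaging quantified EGFP-TorsinA mislocalization in HEK293-derived cells inducibly expressing DYT1 mutant torsinA, after 48 h exposure to compound given together with tetracycline induction. Cell count served as a toxicity channel alongside %pathology.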
# [12] = biological target: Cytochrome P450 3A4 (Homo sapiens) (UniProt P08684); test: Cytochrome P450 family 3 subfamily A member 4 (CYP3A4) small molecule antagonists: luciferase qHTS assay (AID 1645841; active = well fitted curve in the direction sought with a large enough effect in the repeat runs; inconclusive = weak or mixed curves; inactive = no such curve, though single readings can be large; an effect the other way counts as inactive or inconclusive; also: potency is read from the fitted curve at half-maximal effect; nearly all actives have a fitted effect of over 45% in size)
# Chain of UniProt P08684 (P08684 whole entry, looked up): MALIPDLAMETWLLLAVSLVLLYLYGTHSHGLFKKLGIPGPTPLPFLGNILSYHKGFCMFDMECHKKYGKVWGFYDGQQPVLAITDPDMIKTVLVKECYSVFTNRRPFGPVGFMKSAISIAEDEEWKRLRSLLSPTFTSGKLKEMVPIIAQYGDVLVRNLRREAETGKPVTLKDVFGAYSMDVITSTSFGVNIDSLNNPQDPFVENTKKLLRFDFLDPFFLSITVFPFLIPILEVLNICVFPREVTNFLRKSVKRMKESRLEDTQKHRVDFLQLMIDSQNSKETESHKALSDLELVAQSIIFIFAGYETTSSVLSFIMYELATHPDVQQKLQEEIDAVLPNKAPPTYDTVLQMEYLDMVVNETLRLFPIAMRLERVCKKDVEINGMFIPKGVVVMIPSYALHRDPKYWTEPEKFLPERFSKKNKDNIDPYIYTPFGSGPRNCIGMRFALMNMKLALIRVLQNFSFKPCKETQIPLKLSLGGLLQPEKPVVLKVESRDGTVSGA
# How it was run: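 Luminescent CYP3A4 activity readout: compounds plus enzyme-substrate mix 10 min at room temperature, reaction started with NADPH regenerating system for 1 h, stopped with detection reagent, read after 20 min. Ketoconazole served as control.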
# [13] = qHTS of pediatric cancer cell lines to identify multiple opportunities for drug repurposing: Primary screen for DAOY cells (AID 1347090); also: nearly all actives have a fitted effect of over 55% in size
# How it was run: (§2)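 Cell viability, CellTiter-Glo luminescence; 500-1,000 cells/well, 8- or 11-point titration, 48 h compound exposure at 37 degrees C, 5% CO2. Controls: DMSO neutral, bortezomib 2.3 µM final as positive.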
# [14] = qHTS of pediatric cancer cell lines to identify multiple opportunities for drug repurposing: Primary screen for SJ-GBM2 cells (AID 1347091)
# How it was run: as §2
# [15] = qHTS of pediatric cancer cell lines to identify multiple opportunities for drug repurposing: Primary screen for A673 cells (AID 1347092); conditions: A673 Ewing sarcoma viability, CellTiter-Glo ATP luminescence, 48 h; activity change, negative = cytotoxic: at 46 µM (top of the series); also: nearly all actives have a fitted effect of over 45% in size
# How it was run: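 A673 cells (500-1,000 cells/well) were treated 48 hours at 37 degrees C with compounds at 11-point (0.78 nM to 46 µM) or 8-point (0.59 nM to 46 µM) dilutions. Viability read by CellTiter-Glo luminescence; concentration-response curves fitted.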
# [16] = qHTS of pediatric cancer cell lines to identify multiple opportunities for drug repurposing: Primary screen for U-2 OS cells (AID 1347096); also: nearly all actives have a fitted effect of over 50% in size
# How it was run: as §1
# [17] = qHTS of pediatric cancer cell lines to identify multiple opportunities for drug repurposing: Primary screen for NB1643 cells (AID 1347099); conditions: NB1643 neuroblastoma viability, CellTiter-Glo luminescence, 48 h; activity change, negative = cytotoxic: at 46 µM (top of the series); also: nearly all actives have a fitted effect of over 50% in size
# How it was run: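 Primary screen of approved and investigational compounds on cells in growth media at 37 degrees C, 5% CO2. MIPE set at 11-point and NPC set at 8-point dilutions; viability scored by ATP-based luminescence at 48 hours.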
# [18] = qHTS of pediatric cancer cell lines to identify multiple opportunities for drug repurposing: Primary screen for LAN-5 cells (AID 1347100); also: potency is read from the fitted curve at half-maximal effect
# How it was run: as §1
# [19] = qHTS of pediatric cancer cell lines to identify multiple opportunities for drug repurposing: Primary screen for OHS-50 cells (AID 1347103); conditions: OHS-50 osteosarcoma viability, CellTiter-Glo luminescence, 48 h; activity change, negative = cytotoxic: at 57.3 µM (top of the series); also: nearly all actives have a fitted effect of over 40% in size
# How it was run: as §1
# [20] = Primary qHTS for inhibitors of nuclear receptor binding SET domain protein 2 (NSD2) in an isogenic RCH-ACV NSD2 p.E1099K mutant (9B) (AID 1645876); conditions: activity change, negative = viability loss: at 44.9 µM (top of the series) unless noted; also: potency is read from the fitted curve at half-maximal effect; nearly all actives have a fitted effect of over 70% in size
# Tags tell the direction and shape of the fitted curve.
smiles,measurement,setting,value
Cc1nn(C)c2c1C(c1ccc(C(F)(F)F)cc1)C(C#N)=C(N)O2 (stereo not drawn),Potency,[1],inactive
same,Potency,[2],"inconclusive: 18.6 µM [inhibitor, partial curve]"
same,Potency,[3],"inconclusive: 21.3 µM [inhibitor, single point]"
same,Potency,[4],inactive
same,Potency,[5],active: 4.23 µM
same,Potency,SKOV3,"inconclusive: 14.1 µM [rising, partial curve, poor fit]"
C[C@]1(O)CC[C@@H]2C(C(=O)O)=CO[C@@H](O[C@@H]3O[C@H](COC(=O)/C=C/c4ccc(O)c(O)c4)[C@@H](O)[C@H](O)[C@H]3O)[C@@H]21,Potency,[6],"inconclusive: 14.1 µM [inhibitor, full curve]"
same,Potency,[7],"inconclusive: 10 µM [inhibitor, single point]"
same,Potency,[8],active: 3.27 µM
same,Potency,SKOV3,"inconclusive: 3.98 µM [rising, single point]"
CCN(CC)C(=O)C1CN2CCc3cc(OC)c(OC)cc3C2CC1OC(C)=O (stereo not drawn),Potency,[9],inactive
same,Potency,[10],inactive
same,Potency,[11],inactive
same,Potency,[12],"inconclusive: 24.5 µM [falling, single point]"
same,Potency,SKOV3,inactive
C=C1CCC2[C@@](C)(C(=O)O)CCC[C@@]2(C)[C@@H]1CCc1ccoc1 (stereo partly drawn),Potency,[6],active: 10 µM
same,Potency,[7],"inconclusive: 31.6 µM [inhibitor, partial curve, poor fit]"
same,Potency,[4],"inconclusive: 0.505 µM [inhibitor, partial curve, poor fit]"
same,Potency,SKOV3,"inconclusive: 28.2 µM [rising, partial curve, poor fit]"
C[C@@H]1O[C@@H](O[C@H]2[C@@H]3C=CO[C@@H](O[C@@H]4O[C@H](CO)[C@@H](O)[C@H](O)[C@H]4O)[C@@H]3[C@@]3(CO)O[C@@H]23)[C@H](OC(=O)/C=C/c2ccc(O)cc2)[C@H](O)[C@H]1O,Potency,[6],"inconclusive: 25.1 µM [inhibitor, partial curve, poor fit]"
same,Potency,SKOV3,inactive
O=C1CC2(CCCC2)CC(=O)N1,Potency,[13],inactive
same,Potency,[14],inactive
same,Potency,[15],inactive
same,Potency,[16],inactive
same,Potency,[17],inactive
same,Potency,[18],"inconclusive: 0.75 µM [cytotoxic, partial curve, poor fit]"
same,Potency,[19],inactive
same,Potency,SKOV3,inactive
O=C(NC[C@H]1CN(c2ccc(N3CCOCC3=O)cc2)C(=O)O1)c1ccc(Cl)s1,Potency,[1],inactive
same,Potency,[20],"inconclusive: 29 µM [inhibitor, single point]"
same,Potency,[4],"inconclusive: 20.5 µM [inhibitor, partial curve, poor fit]"
same,Potency,SKOV3,inactive
